This is an account of results in the supplement of paper PMC12230231.

± gives the standard deviation of the averaged measurements. Restriction of a single-cycle SIVsab GFP reporter by TRIM5α v1-loop variants in CRFK cells. Human variants: read share among cells still uninfected after two challenges over input, higher = gained restriction. Rhesus variants: share among infected cells over input, higher = lost restriction. Reporter dose not given per row. No active / inactive call per row; the paper calls a change when both replicates lie above its controls (mean + 2 SD of stop or wild-type variants, or the top frameshift score). Residues outside the varied loop are taken from Swiss-Prot. The paper reads the human single-substitution scores as noise; they and the rhesus combinations repeat poorly (rank correlation 0.3 to 0.4), indel scores repeat only for the top variants, rhesus substitutions well (0.9).

The test system of the series is SIVsab (simian immunodeficiency virus of sabaeus monkeys), single-cycle GFP reporter, in CRFK cells. The series is described as follows: enrichment among uninfected cells over input (fold); higher = stronger restriction. The settings on record: library: human / rhesus combinations. On the procedure: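 Pools of CRFK cells expressing variants of the TRIM5α v1 loop were challenged with the single-cycle reporter, sorted by GFP and sequenced; mean of two replicates.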
For the sequence “MASGILVNVKEEVTCPICLELLTQPLSLDCGHSFCQACLTANHKKSMLDKGESSCPVCRISYQPENIRPNRHVANIVEKLREVKLSPEGQKVDHCARHGEKLLLFCQEDGKVICWLCERSQEHRGHHTFLTEEVAREYQVKLQAALEMLRQKQQEAEELEADIREEKASWKTQIQYDKTNVLADFEQLRDILDWEESNELQNLEKEEEDILKSLTNSETEMVQQTQSLRELISDLEHRLQGSVMELLQGVDGVIKRTENVTLKKPETFPKNQRRVFRAPDLKGMLEVFRELTDVRRYWVDVTVAPNNISCAVISEDKRQVSSPKPQIIYQARGTLYQSFVNFNYCTGILGSQSITSGKHYWEVDVSKKTAWILGVCAGFQPDAMCNIEKNENYQPKYGYWVIGLEEGVKCSAFQDSSFHTPSVPFIVPLSVIICPDRVGVFLDYEACTVSFFNITNHGFLIYKFSHCSFSQPVFPYLNPRKCGVPMTLCSPSS [human TRIM5α, 330-340 = QARGTLYQSFV]”, the enrichment came to 0.00573 ± 0.0017. Take “MASGILVNVKEEVTCPICLELLTQPLSLDCGHSFCQACLTANHKKSMLDKGESSCPVCRISYQPENIRPNRHVANIVEKLREVKLSPEGQKVDHCARHGEKLLLFCQEDGKVICWLCERSQEHRGHHTFLTEEVAREYQVKLQAALEMLRQKQQEAEELEADIREEKASWKTQIQYDKTNVLADFEQLRDILDWEESNELQNLEKEEEDILKSLTNSETEMVQQTQSLRELISDLEHRLQGSVMELLQGVDGVIKRTENVTLKKPETFPKNQRRVFRAPDLKGMLEVFRELTDVRRYWVDVTVAPNNISCAVISEDKRQVSSPKPQIIYQARGTLYQTLVNFNYCTGILGSQSITSGKHYWEVDVSKKTAWILGVCAGFQPDAMCNIEKNENYQPKYGYWVIGLEEGVKCSAFQDSSFHTPSVPFIVPLSVIICPDRVGVFLDYEACTVSFFNITNHGFLIYKFSHCSFSQPVFPYLNPRKCGVPMTLCSPSS [human TRIM5α, 330-340 = QARGTLYQTLV]”: the enrichment was 0.00714 ± 0.0016.

With “MASGILVNVKEEVTCPICLELLTQPLSLDCGHSFCQACLTANHKKSMLDKGESSCPVCRISYQPENIRPNRHVANIVEKLREVKLSPEGQKVDHCARHGEKLLLFCQEDGKVICWLCERSQEHRGHHTFLTEEVAREYQVKLQAALEMLRQKQQEAEELEADIREEKASWKTQIQYDKTNVLADFEQLRDILDWEESNELQNLEKEEEDILKSLTNSETEMVQQTQSLRELISDLEHRLQGSVMELLQGVDGVIKRTENVTLKKPETFPKNQRRVFRAPDLKGMLEVFRELTDVRRYWVDVTVAPNNISCAVISEDKRQVSSPKPQIIYQARGTLYTFPSFTNFNYCTGILGSQSITSGKHYWEVDVSKKTAWILGVCAGFQPDAMCNIEKNENYQPKYGYWVIGLEEGVKCSAFQDSSFHTPSVPFIVPLSVIICPDRVGVFLDYEACTVSFFNITNHGFLIYKFSHCSFSQPVFPYLNPRKCGVPMTLCSPSS [human TRIM5α, 330-340 = QARGTLYTFPSFT]”, the enrichment turned out to be 0.199 ± 0.11. With “MASGILVNVKEEVTCPICLELLTQPLSLDCGHSFCQACLTANHKKSMLDKGESSCPVCRISYQPENIRPNRHVANIVEKLREVKLSPEGQKVDHCARHGEKLLLFCQEDGKVICWLCERSQEHRGHHTFLTEEVAREYQVKLQAALEMLRQKQQEAEELEADIREEKASWKTQIQYDKTNVLADFEQLRDILDWEESNELQNLEKEEEDILKSLTNSETEMVQQTQSLRELISDLEHRLQGSVMELLQGVDGVIKRTENVTLKKPETFPKNQRRVFRAPDLKGMLEVFRELTDVRRYWVDVTVAPNNISCAVISEDKRQVSSPKPQIIYQARGTLYTFPSFVNFNYCTGILGSQSITSGKHYWEVDVSKKTAWILGVCAGFQPDAMCNIEKNENYQPKYGYWVIGLEEGVKCSAFQDSSFHTPSVPFIVPLSVIICPDRVGVFLDYEACTVSFFNITNHGFLIYKFSHCSFSQPVFPYLNPRKCGVPMTLCSPSS [human TRIM5α, 330-340 = QARGTLYTFPSFV]”, the enrichment was found to be 1.15 ± 0.27. As to “MASGILVNVKEEVTCPICLELLTQPLSLDCGHSFCQACLTANHKKSMLDKGESSCPVCRISYQPENIRPNRHVANIVEKLREVKLSPEGQKVDHCARHGEKLLLFCQEDGKVICWLCERSQEHRGHHTFLTEEVAREYQVKLQAALEMLRQKQQEAEELEADIREEKASWKTQIQYDKTNVLADFEQLRDILDWEESNELQNLEKEEEDILKSLTNSETEMVQQTQSLRELISDLEHRLQGSVMELLQGVDGVIKRTENVTLKKPETFPKNQRRVFRAPDLKGMLEVFRELTDVRRYWVDVTVAPNNISCAVISEDKRQVSSPKPQIIYQARGTLYTFPSLTNFNYCTGILGSQSITSGKHYWEVDVSKKTAWILGVCAGFQPDAMCNIEKNENYQPKYGYWVIGLEEGVKCSAFQDSSFHTPSVPFIVPLSVIICPDRVGVFLDYEACTVSFFNITNHGFLIYKFSHCSFSQPVFPYLNPRKCGVPMTLCSPSS [human TRIM5α, 330-340 = QARGTLYTFPSLT]”, the enrichment stood at 0.0545 ± 0.075. Consider “MASGILVNVKEEVTCPICLELLTQPLSLDCGHSFCQACLTANHKKSMLDKGESSCPVCRISYQPENIRPNRHVANIVEKLREVKLSPEGQKVDHCARHGEKLLLFCQEDGKVICWLCERSQEHRGHHTFLTEEVAREYQVKLQAALEMLRQKQQEAEELEADIREEKASWKTQIQYDKTNVLADFEQLRDILDWEESNELQNLEKEEEDILKSLTNSETEMVQQTQSLRELISDLEHRLQGSVMELLQGVDGVIKRTENVTLKKPETFPKNQRRVFRAPDLKGMLEVFRELTDVRRYWVDVTVAPNNISCAVISEDKRQVSSPKPQIIYQARGTLYTFPSLVNFNYCTGILGSQSITSGKHYWEVDVSKKTAWILGVCAGFQPDAMCNIEKNENYQPKYGYWVIGLEEGVKCSAFQDSSFHTPSVPFIVPLSVIICPDRVGVFLDYEACTVSFFNITNHGFLIYKFSHCSFSQPVFPYLNPRKCGVPMTLCSPSS [human TRIM5α, 330-340 = QARGTLYTFPSLV]”, for which the enrichment turned out to be 0.158 ± 0.0066. Turning to “MASGILVNVKEEVTCPICLELLTQPLSLDCGHSFCQACLTANHKKSMLDKGESSCPVCRISYQPENIRPNRHVANIVEKLREVKLSPEGQKVDHCARHGEKLLLFCQEDGKVICWLCERSQEHRGHHTFLTEEVAREYQVKLQAALEMLRQKQQEAEELEADIREEKASWKTQIQYDKTNVLADFEQLRDILDWEESNELQNLEKEEEDILKSLTNSETEMVQQTQSLRELISDLEHRLQGSVMELLQGVDGVIKRTENVTLKKPETFPKNQRRVFRAPDLKGMLEVFRELTDVRRYWVDVTVAPNNISCAVISEDKRQVSSPKPQIIYQARGTLYTFPTFTNFNYCTGILGSQSITSGKHYWEVDVSKKTAWILGVCAGFQPDAMCNIEKNENYQPKYGYWVIGLEEGVKCSAFQDSSFHTPSVPFIVPLSVIICPDRVGVFLDYEACTVSFFNITNHGFLIYKFSHCSFSQPVFPYLNPRKCGVPMTLCSPSS [human TRIM5α, 330-340 = QARGTLYTFPTFT]”, the enrichment came to 0.0561 ± 0.074. The figure for “MASGILVNVKEEVTCPICLELLTQPLSLDCGHSFCQACLTANHKKSMLDKGESSCPVCRISYQPENIRPNRHVANIVEKLREVKLSPEGQKVDHCARHGEKLLLFCQEDGKVICWLCERSQEHRGHHTFLTEEVAREYQVKLQAALEMLRQKQQEAEELEADIREEKASWKTQIQYDKTNVLADFEQLRDILDWEESNELQNLEKEEEDILKSLTNSETEMVQQTQSLRELISDLEHRLQGSVMELLQGVDGVIKRTENVTLKKPETFPKNQRRVFRAPDLKGMLEVFRELTDVRRYWVDVTVAPNNISCAVISEDKRQVSSPKPQIIYQARGTLYTFPTFVNFNYCTGILGSQSITSGKHYWEVDVSKKTAWILGVCAGFQPDAMCNIEKNENYQPKYGYWVIGLEEGVKCSAFQDSSFHTPSVPFIVPLSVIICPDRVGVFLDYEACTVSFFNITNHGFLIYKFSHCSFSQPVFPYLNPRKCGVPMTLCSPSS [human TRIM5α, 330-340 = QARGTLYTFPTFV]” is 0.0725 ± 0.1; for “MASGILVNVKEEVTCPICLELLTQPLSLDCGHSFCQACLTANHKKSMLDKGESSCPVCRISYQPENIRPNRHVANIVEKLREVKLSPEGQKVDHCARHGEKLLLFCQEDGKVICWLCERSQEHRGHHTFLTEEVAREYQVKLQAALEMLRQKQQEAEELEADIREEKASWKTQIQYDKTNVLADFEQLRDILDWEESNELQNLEKEEEDILKSLTNSETEMVQQTQSLRELISDLEHRLQGSVMELLQGVDGVIKRTENVTLKKPETFPKNQRRVFRAPDLKGMLEVFRELTDVRRYWVDVTVAPNNISCAVISEDKRQVSSPKPQIIYQARGTLYTFPTLTNFNYCTGILGSQSITSGKHYWEVDVSKKTAWILGVCAGFQPDAMCNIEKNENYQPKYGYWVIGLEEGVKCSAFQDSSFHTPSVPFIVPLSVIICPDRVGVFLDYEACTVSFFNITNHGFLIYKFSHCSFSQPVFPYLNPRKCGVPMTLCSPSS [human TRIM5α, 330-340 = QARGTLYTFPTLT]” it is 0.253 ± 0.17. For the sequence “MASGILVNVKEEVTCPICLELLTQPLSLDCGHSFCQACLTANHKKSMLDKGESSCPVCRISYQPENIRPNRHVANIVEKLREVKLSPEGQKVDHCARHGEKLLLFCQEDGKVICWLCERSQEHRGHHTFLTEEVAREYQVKLQAALEMLRQKQQEAEELEADIREEKASWKTQIQYDKTNVLADFEQLRDILDWEESNELQNLEKEEEDILKSLTNSETEMVQQTQSLRELISDLEHRLQGSVMELLQGVDGVIKRTENVTLKKPETFPKNQRRVFRAPDLKGMLEVFRELTDVRRYWVDVTVAPNNISCAVISEDKRQVSSPKPQIIYQARGTLYTFPTLVNFNYCTGILGSQSITSGKHYWEVDVSKKTAWILGVCAGFQPDAMCNIEKNENYQPKYGYWVIGLEEGVKCSAFQDSSFHTPSVPFIVPLSVIICPDRVGVFLDYEACTVSFFNITNHGFLIYKFSHCSFSQPVFPYLNPRKCGVPMTLCSPSS [human TRIM5α, 330-340 = QARGTLYTFPTLV]”, the enrichment stood at 0.141 ± 0.2.

Take “MASGILVNVKEEVTCPICLELLTQPLSLDCGHSFCQACLTANHKKSMLDKGESSCPVCRISYQPENIRPNRHVANIVEKLREVKLSPEGQKVDHCARHGEKLLLFCQEDGKVICWLCERSQEHRGHHTFLTEEVAREYQVKLQAALEMLRQKQQEAEELEADIREEKASWKTQIQYDKTNVLADFEQLRDILDWEESNELQNLEKEEEDILKSLTNSETEMVQQTQSLRELISDLEHRLQGSVMELLQGVDGVIKRTENVTLKKPETFPKNQRRVFRAPDLKGMLEVFRELTDVRRYWVDVTVAPNNISCAVISEDKRQVSSPKPQIIYQARGTLYTFQSFTNFNYCTGILGSQSITSGKHYWEVDVSKKTAWILGVCAGFQPDAMCNIEKNENYQPKYGYWVIGLEEGVKCSAFQDSSFHTPSVPFIVPLSVIICPDRVGVFLDYEACTVSFFNITNHGFLIYKFSHCSFSQPVFPYLNPRKCGVPMTLCSPSS [human TRIM5α, 330-340 = QARGTLYTFQSFT]”: the enrichment was found to be 0.408 ± 0.095.

Take “MASGILVNVKEEVTCPICLELLTQPLSLDCGHSFCQACLTANHKKSMLDKGESSCPVCRISYQPENIRPNRHVANIVEKLREVKLSPEGQKVDHCARHGEKLLLFCQEDGKVICWLCERSQEHRGHHTFLTEEVAREYQVKLQAALEMLRQKQQEAEELEADIREEKASWKTQIQYDKTNVLADFEQLRDILDWEESNELQNLEKEEEDILKSLTNSETEMVQQTQSLRELISDLEHRLQGSVMELLQGVDGVIKRTENVTLKKPETFPKNQRRVFRAPDLKGMLEVFRELTDVRRYWVDVTVAPNNISCAVISEDKRQVSSPKPQIIYQARGTLYTFQSFVNFNYCTGILGSQSITSGKHYWEVDVSKKTAWILGVCAGFQPDAMCNIEKNENYQPKYGYWVIGLEEGVKCSAFQDSSFHTPSVPFIVPLSVIICPDRVGVFLDYEACTVSFFNITNHGFLIYKFSHCSFSQPVFPYLNPRKCGVPMTLCSPSS [human TRIM5α, 330-340 = QARGTLYTFQSFV]”: the enrichment turned out to be 0.213 ± 0.028.
